According to patent US9873709B2 (priority 2013, dated 2018):
Structures can show the parent of a compound that is named as a salt.

target: isolated recombinant JAK1 kinase domain (Homo sapiens (Human), UniProt P23458); settings: read-out: JAK1 Ki
Sequence (P23458 875-1153): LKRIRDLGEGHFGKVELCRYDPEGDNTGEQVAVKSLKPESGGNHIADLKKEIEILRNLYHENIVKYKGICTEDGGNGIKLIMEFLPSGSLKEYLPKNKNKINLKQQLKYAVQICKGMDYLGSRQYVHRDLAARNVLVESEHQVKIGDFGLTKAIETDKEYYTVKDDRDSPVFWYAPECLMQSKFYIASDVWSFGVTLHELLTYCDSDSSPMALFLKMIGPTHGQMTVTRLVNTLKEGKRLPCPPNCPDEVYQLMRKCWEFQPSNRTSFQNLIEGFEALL

| SMILES | Ki |
| --- | --- |
| CC(C)CN1CCC(N(C)C(=O)Cn2cc(Nc3nc4c(C5=CCN(C(=O)CCC(F)(F)F)CC5)cccn4n3)cn2)CC1 [Example 1-297, N-methyl-N-[1-(2-methylpropyl)piperidin-4-yl]-2-[4-([8-[1-(4,4,4-trifluorobutanoyl)-1,2,3,6-tetrahydropyridin-4-yl]-[1,2,4]triazolo[1,5-a]pyridin-2-yl]amino)-1H-pyrazol-1-yl]acetamide] | 1.7 nM |

same assay, conditions: read-out: JAK1 Ki; isolated recombinant JAK1 kinase domain, 25 μM ATP

| SMILES | Ki |
| --- | --- |
| CN1CCC(N(C)C(=O)c2ccc(Nc3nc4c(N5CCC(C)(NC(=O)c6ccccc6)CC5)cccn4n3)cc2)CC1 [Example 1-302, 4-[[8-(4-benzamido-4-methyl-1-piperidyl)-[1,2,4]triazolo[1,5-a]pyridin-2-yl]amino]-N-methyl-N-(1-methyl-4-piperidyl)benzamide] | 22.2 nM |
| CN1CCC(N(C)C(=O)c2ccc(Nc3nc4c(N5CCC(C)(NS(=O)(=O)c6ccccc6)CC5)cccn4n3)cc2)CC1 [Example 1-303, 4-[[8-[4-(benzenesulfonamido)-4-methyl-1-piperidyl]-[1,2,4]triazolo[1,5-a]pyridin-2-yl]amino]-N-methyl-N-(1-methyl-4-piperidyl)benzamide] | 46 nM |
| CN1CCC(N(C)C(=O)c2ccc(Nc3nc4c(C5=CCN(C(=O)OC6CC6)CC5)cccn4n3)cc2)CC1 [Example 2-2, cyclopropyl 4-[2-[4-[methyl-(1-methyl-4-piperidyl)carbamoyl]anilino]-[1,2,4]triazolo[1,5-a]pyridin-8-yl]-3,6-dihydro-2H-pyridine-1-carboxylate] | 4.99 nM |
| CN1CCC(N(C)C(=O)c2ccc(Nc3nc4c(C5=CCN(C(=O)N6CC(C#N)C6)CC5)cccn4n3)cc2)CC1 [Example 2-5, 4-[[8-[1-(3-cyanoazetidine-1-carbonyl)-3,6-dihydro-2H-pyridin-4-yl]-[1,2,4]triazolo[1,5-a]pyridin-2-yl]amino]-N-methyl-N-(1-methyl-4-piperidyl)benzamide] | 2.23 nM |
| CN1CCC(N(C)C(=O)c2ccc(Nc3nc4c(C5=CCN(Cc6ccccc6)CC5)cccn4n3)cc2)CC1 [Example 2-8, 4-[[8-(1-benzyl-3,6-dihydro-2H-pyridin-4-yl)-[1,2,4]triazolo[1,5-a]pyridin-2-yl]amino]-N-methyl-N-(1-methyl-4-piperidyl)benzamide; hydrochloride] | 42.1 nM |
| CN1CCC(N(C)C(=O)c2ccc(Nc3nc4c(C5=CCN(C(=O)CCO)CC5)cccn4n3)cc2)CC1 [Example 2-9, 4-[[8-[1-(3-hydroxypropanoyl)-3,6-dihydro-2H-pyridin-4-yl]-[1,2,4]triazolo[1,5-a]pyridin-2-yl]amino]-N-methyl-N-(1-methyl-4-piperidyl)benzamide] | 8.76 nM |
| CN(C)CCC(=O)N1CC=C(c2cccn3nc(Nc4ccc(C(=O)N(C)C5CCN(C)CC5)cc4)nc23)CC1 [Example 2-10, 4-[[8-[1-[3-(dimethylamino)propanoyl]-3,6-dihydro-2H-pyridin-4-yl]-[1,2,4]triazolo[1,5-a]pyridin-2-yl]amino]-N-methyl-N-(1-methyl-4-piperidyl)benzamide; dihydrochloride] | 53.1 nM |
| CCOC(=O)N1CC=C(c2cccn3nc(Nc4ccc(C(=O)NCCC5CCNCC5)cc4)nc23)CC1 [Example 2-13, ethyl 4-[2-[4-[2-(4-piperidyl)ethylcarbamoyl]anilino]-[1,2,4]triazolo[1,5-a]pyridin-8-yl]-3,6-dihydro-2H-pyridine-1-carboxylate] | 1.54 nM |
| CCOC(=O)N1CC=C(c2cccn3nc(Nc4ccc(C(=O)N(C)Cc5cccnc5)cc4)nc23)CC1 [Example 2-14, ethyl 4-[2-[4-[methyl(3-pyridylmethyl)carbamoyl]anilino]-[1,2,4]triazolo[1,5-a]pyridin-8-yl]-3,6-dihydro-2H-pyridine-1-carboxylate] | 2.51 nM |
| CCOC(=O)N1CC=C(c2cccn3nc(Nc4ccc(C(=O)N5CCC(N6CCOCC6)CC5)cc4)nc23)CC1 [Example 2-18, ethyl 4-[2-[4-(4-morpholinopiperidine-1-carbonyl)anilino]-[1,2,4]triazolo[1,5-a]pyridin-8-yl]-3,6-dihydro-2H-pyridine-1-carboxylate] | 2.19 nM |

Other lines, results leading:

| Ki | SMILES |
| --- | --- |
| 0.63 nM | CN1CCC(N(C)C(=O)c2ccc(Nc3nc4c(N5CCC(CC(N)=O)(c6ccc(Cl)cc6)CC5)cccn4n3)cc2)CC1 [Example 1-298] |
| 1.23 nM | CN1CCC(N(C)C(=O)c2ccc(Nc3nc4c(N5CCC(CC(=O)N(C)C)(c6ccc(Cl)cc6)CC5)cccn4n3)cc2)CC1 [Example 1-300, 4-([8-[4-(4-chlorophenyl)-4-[(dimethylcarbamoyl)methyl]piperidin-1-yl]-[1,2,4]triazolo[1,5-a]pyridin-2-yl]amino)-N-methyl-N-(1-methylpiperidin-4-yl)benzamide] |
| 2.26 nM | CN1CCC(N(C)C(=O)c2ccc(Nc3nc4c(C5=CCN(C(=O)CC(C)(C)O)CC5)cccn4n3)cc2)CC1 [Example 2-3, 4-[[8-[1-(3-hydroxy-3-methyl-butanoyl)-3,6-dihydro-2H-pyridin-4-yl]-[1,2,4]triazolo[1,5-a]pyridin-2-yl]amino]-N-methyl-N-(1-methyl-4-piperidyl)benzamide] |
| 1.14 nM | CN1CCC(N(C)C(=O)c2ccc(Nc3nc4c(C5=CCN(C(=O)OCC#N)CC5)cccn4n3)cc2)CC1 [Example 2-7, cyanomethyl 4-[2-[4-[methyl-(1-methyl-4-piperidyl)carbamoyl]anilino]-[1,2,4]triazolo[1,5-a]pyridin-8-yl]-3,6-dihydro-2H-pyridine-1-carboxylate] |
| 1.94 nM | CCOC(=O)N1CC=C(c2cccn3nc(Nc4ccc(C(=O)NCC(C)(C)N5CCOCC5)cc4)nc23)CC1 [Example 2-11, ethyl 4-[2-[4-[(2-methyl-2-morpholino-propyl)carbamoyl]anilino]-[1,2,4]triazolo[1,5-a]pyridin-8-yl]-3,6-dihydro-2H-pyridine-1-carboxylate] |
| 2.71 nM | CCOC(=O)N1CC=C(c2cccn3nc(Nc4ccc(C(=O)N5CCC(N(C)C)CC5)cc4)nc23)CC1 [Example 2-12, ethyl 4-[2-[4-[4-(dimethylamino)piperidine-1-carbonyl]anilino]-[1,2,4]triazolo[1,5-a]pyridin-8-yl]-3,6-dihydro-2H-pyridine-1-carboxylate] |
| 1.28 nM | CCOC(=O)N1CC=C(c2cccn3nc(Nc4ccc(C(=O)N5CCCC5c5ccncc5)cc4)nc23)CC1 (centres unmarked) [Example 2-15, ethyl 4-[2-[4-[2-(4-pyridyl)pyrrolidine-1-carbonyl]anilino]-[1,2,4]triazolo[1,5-a]pyridin-8-yl]-3,6-dihydro-2H-pyridine-1-carboxylate] |
| 2.67 nM | CCOC(=O)N1CC=C(c2cccn3nc(Nc4ccc(C(=O)N5CCC(Cc6ccccn6)CC5)cc4)nc23)CC1 [Example 2-16, ethyl 4-[2-[4-[4-(2-pyridylmethyl)piperidine-1-carbonyl]anilino]-[1,2,4]triazolo[1,5-a]pyridin-8-yl]-3,6-dihydro-2H-pyridine-1-carboxylate] |
| 2.67 nM | CCOC(=O)N1CC=C(c2cccn3nc(Nc4ccc(C(=O)N5CCN(Cc6ccccn6)CC5)cc4)nc23)CC1 [Example 2-17, ethyl 4-[2-[4-[4-(2-pyridylmethyl)piperazine-1-carbonyl]anilino]-[1,2,4]triazolo[1,5-a]pyridin-8-yl]-3,6-dihydro-2H-pyridine-1-carboxylate] |
